From the supplement of paper PMC5919970
Structures can show the parent of a compound that is named as a salt. Whole data set: some 2,000 compounds, median “fractional viability relative to vehicle” near 0.92, cut for the lowest 2% near 0.11. This is one part of the list.

Test system: TYKNU
Assay: fractional viability relative to vehicle; TYKNU is a high-grade serous ovarian cancer line; higher = less growth inhibition
Conditions: 72 h, genotype: OPA1 knockout (sgOPA1 #2)
Outline: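 TYKNU control cells or lentiCRISPRv2 knockout derivatives were plated at 500 cells per well in duplicate into drug-stamped 384-well plates holding a ~2100-compound library at 2 or 10 μM. Culture was in RPMI 1640 with 10% FBS at 37 °C in 5% CO2, with 72 h of drug treatment. Viability was measured by Cell Titer Glo luminescence, and the averaged duplicate treatment wells were normalised to duplicate control wells at the same plate position.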

| SMILES | fractional viability (2uM) | fractional viability (10uM) |
| --- | --- | --- |
| CC(C)[C@H](O)C(=O)N[C@@H](C)C(=O)N[C@@H]1C(=O)N(C)CCc2ccccc21 | 1.3 | 1.03 |
| Nc1ccc(/N=N/c2ccccc2)c(N)n1 [Phenazopyridine HCl] | 0.997 | 0.876 |
| CCC(=O)O[C@]1(C(=O)SCF)[C@H](C)C[C@H]2[C@@H]3C[C@H](F)C4=CC(=O)C=C[C@]4(C)[C@@]3(F)[C@@H](O)C[C@@]21C [Fluticasone propionate] | 1.07 | 0.822 |
| Cc1c(C(=O)N2CCOc3ccc(-c4ccc(N)nc4)cc3C2)ccc(S(C)(=O)=O)c1F | 0.827 | 0.602 |
| CC(NCCc1ccc(O)cc1)C(O)c1ccc(O)cc1 (centres undefined) [Ritodrine HCl] | 1.09 | 0.754 |
| C[C@H](Nc1ncnc2nc[nH]c12)c1cc2cccc(Cl)c2c(=O)n1-c1ccccc1 | 0.926 | 1.05 |
| CC(C)(O)CC(=O)NCCn1ccc2ncnc(Nc3ccc(Oc4cccc(C(F)(F)F)c4)c(Cl)c3)c21 | 0.896 | 0.76 |
| CC(C)c1cnn2c(NCc3ccccc3)cc(NCCCCCCN)nc12 | 1.18 | 0.799 |
| O=C(c1ccc(F)c(F)c1Nc1ccc(I)cc1F)N1CC(O)([C@@H]2CCCCN2)C1 [Cobimetinib (GDC-0973, RG7420)] | 0.722 | 0.831 |
| O=S(=O)(c1cccc2cnccc12)N1CCCNCC1 [Fasudil (HA-1077) HCl] | 0.988 | 1.16 |
| COc1cc2nc(N3CCCN(C)CC3)nc(NC3CCN(Cc4ccccc4)CC3)c2cc1OC | 0.506 | 0.0546 |
| O=C(CSc1nc2c(c(=O)n1-c1ccccc1)SCC2)Nc1ccc(-c2ccccc2)cn1 | 1.09 | 0.948 |
| CCC(C)(C)C(=O)O[C@H]1C[C@@H](C)C=C2C=C[C@H](C)[C@H](CC[C@@H]3C[C@@H](O)CC(=O)O3)[C@H]21 [Simvastatin] | 0.852 | 0.602 |
| CC(=O)Oc1ccc(C(c2ccc(OC(C)=O)cc2)c2ccccn2)cc1 [Bisacodyl] | 0.973 | 0.841 |
| CCOC(=O)CC(=O)N1CCSC1COc1ccccc1OC (centres undefined) [Moguisteine] | 1.06 | 0.798 |
| N#CC[C@H](C1CCCC1)n1cc(-c2ncnc3[nH]ccc23)cn1 | 1.05 | 0.842 |
| CCCc1nn(C)c2c(=O)[nH]c(-c3cc(S(=O)(=O)N4CCN(C)CC4)ccc3OCC)nc12 [Sildenafil Citrate] | 1.23 | 1.13 |
| CN(C[C@@H]1COCCO1)S(=O)(=O)Nc1ccc2ccc3ncc(-c4cnn(C)c4)cc3c(=O)c2c1 | 1.17 | 0.558 |
| C[C@H](CS)C(=O)N1CCC[C@H]1C(=O)O [Captopril] | 1.04 | 1.08 |
| CN(Cc1cc(Br)cc(Br)c1N)C1CCCCC1 [Bromhexine HCl] | 0.995 | 0.985 |
| Cn1cnc2c(F)c(Nc3ccc(Br)cc3Cl)c(C(=O)NOCCO)cc21 [Selumetinib (AZD6244)] | 0.809 | 0.561 |
| Nc1nc(N)c2nc(-c3cccc(O)c3)c(-c3cccc(O)c3)nc2n1 | 0.979 | 1.03 |
| NCCc1ccc(O)c(O)c1 [Dopamine HCl] | 0.661 | 0.373 |

| SMILES | fractional viability (2uM) | fractional viability (10uM) |
| --- | --- | --- |
| CC[C@H](c1ccc(O)cc1)[C@@H](CC)c1ccc(O)cc1 [Hexestrol] | 1.07 | 0.798 |
| Cc1c(Nc2ncccc2C(=O)O)cccc1C(F)(F)F [Flunixin Meglumin] | 1.23 | 1.05 |
| OC[C@@H](O)CN1CCN(c2ccccc2)CC1 [Levodropropizine] | 0.994 | 0.835 |
| N#CC1(c2ccc(NC(=O)c3cccnc3NCc3ccncc3)cc2)CCCC1 [Apatinib] | 0.883 | 0.984 |
| CC(ONC(=O)c1cc(C(F)(F)F)cc(C(F)(F)F)c1)C(=O)Nc1ccc(Cl)cc1 (centres undefined) | 0.834 | 0.646 |
| CN1CCN(C(=O)c2cc3cc(Cl)ccc3[nH]2)CC1 | 1.08 | 1.08 |
| COc1ccc(CNc2nc(N3CCC[C@H]3CO)ncc2C(=O)NCc2ncccn2)cc1Cl [Avanafil] | 0.967 | 0.832 |
| COC(=O)N[C@H](C(=O)N1CC2(CC2)C[C@H]1c1nc(-c2ccc3c(c2)C(F)(F)c2cc(-c4ccc5[nH]c([C@@H]6[C@H]7CC[C@H](C7)N6C(=O)[C@@H](NC(=O)OC)C(C)C)nc5c4)ccc2-3)c[nH]1)C(C)C [Ledipasvir (GS5885)] | 0.795 | 0.623 |
| CC(=O)OCC(=O)[C@@]1(O)CC[C@H]2[C@@H]3CCC4=CC(=O)C=C[C@]4(C)[C@H]3[C@@H](O)C[C@@]21C [Prednisolone Acetate] | 1.15 | 1.17 |
| CCCCOc1ccc(C(=O)CCN2CCCCC2)cc1 [Dyclonine HCl] | 1.06 | 0.796 |
| COc1ccc(CCC(=O)Nc2nc3ccc(Cl)cc3s2)cc1OC | 0.989 | 1.04 |
| C=C1C(=O)O[C@H]2[C@H]1CC/C(C)=C/CC[C@@]1(C)O[C@@H]21 [(-)-Parthenolide] | 0.557 | 0.0743 |
| O=[N+]([O-])c1cn2c(n1)OC[C@@H](OCc1ccc(OC(F)(F)F)cc1)C2 | 1.15 | 1.66 |
| Cn1nnc2c(C(N)=O)ncn2c1=O [Temozolomide] | 1.24 | 0.858 |
| CC(C)(C)CC(C)(C)c1ccc(OCCOCC[N+](C)(C)Cc2ccccc2)cc1 [Benzethonium Chloride] | 0.76 | 0.234 |
| C=CC[N+]1([C@H]2C[C@H]3[C@@H]4CC[C@H]5C[C@H](O)[C@@H](N6CCOCC6)C[C@]5(C)[C@H]4CC[C@]3(C)[C@H]2OC(C)=O)CCCC1 [Rocuronium Bromide] | 1.16 | 1.11 |
| Cc1ccc(C(=O)Cn2c3c(sc2=N)CCCC3)cc1 [Pifithrin-_ (PFT_)] | 0.901 | 0.889 |
| CC(C)(C)NC(=O)[C@H]1CC[C@H]2[C@@H]3CC[C@H]4NC(=O)C=C[C@]4(C)[C@H]3CC[C@]12C [Finasteride] | 1.16 | 1.01 |
| Nc1nc(N)c2nc(-c3ccccc3)c(N)nc2n1 [Triamterene] | 0.956 | 0.8 |
| C=C1CC[C@H](O)C/C1=C/C=C1\CCC[C@]2(C)[C@@H]([C@H](C)/C=C/[C@H](C)C(C)C)CC[C@@H]12 [Vitamin D2] | 0.917 | 0.567 |
| CCS(=O)(=O)N1CCN(c2ccc(Nc3ncc(C(N)=O)c(NC4CC4)n3)cc2)CC1 | 0.781 | 0.496 |
| C[N+](C)(C)CC(O)CC(=O)[O-] (racemic) [DL-Carnitine HCl] | 1.03 | 0.946 |
| C[N+](C)(C)C[C@H](O)CC(=O)[O-] [L-carnitine] | 0.815 | 1.07 |

| SMILES | fractional viability (2uM) | fractional viability (10uM) |
| --- | --- | --- |
| O=C(c1ccccc1)c1ccc2nc(NC(=O)c3csc(C4CCN(c5ncnc6ccsc56)CC4)n3)[nH]c2c1 | 0.98 | 0.988 |
| Cn1c(N2CCCCS2(=O)=O)nc(C(=O)NCc2ccc(F)cc2)c(O)c1=O | 1.05 | 1.02 |
| CC(C)c1nc(CN(C)C(=O)N[C@@H](CCN2CCOCC2)C(=O)N[C@H](CC[C@H](Cc2ccccc2)NC(=O)OCc2cncs2)Cc2ccccc2)cs1 [Cobicistat (GS-9350)] | 1.01 | 0.896 |
| Cc1cccc(-c2nn3c(c2-c2ccnc4ccc(C(N)=O)cc24)CCC3)n1 | 1.03 | 1.22 |
| O=C(Nc1cccnc1)N1CCC(Cc2cccc(Oc3ccc(C(F)(F)F)cn3)c2)CC1 | 0.993 | 0.984 |
| Cc1cc(C)nc(NS(=O)(=O)c2ccc(NC(=S)NC(=O)COc3ccc(Br)cc3Cl)cc2)n1 | 0.956 | 0.803 |
| CN1C(C(=O)Nc2ccccn2)=C(O)c2sc(Cl)cc2S1(=O)=O [Lornoxicam] | 1.05 | 0.985 |
| CC12CC3CC(C)(C1)CC(N)(C3)C2 [Memantine HCl] | 0.858 | 1.03 |
| Cc1ccc(CNc2ncnc3ccc(-c4ccc(CO)o4)cc23)o1 | 0.989 | 1.02 |
| COc1ccc(-c2cc(=O)c3c(OC)c(OC)c(OC)c(OC)c3o2)cc1 [Tangeretin] | 1.11 | 1.37 |
| O=C(O)c1ccc(C=C2SC(=S)N(c3cccc(C(F)(F)F)c3)C2=O)cc1 | 0.868 | 0.776 |
| CCC[C@@H]1C[C@@H](C(=O)N[C@@H]([C@H]2O[C@H](SC)[C@H](O)[C@@H](O)[C@H]2O)[C@@H](C)O)N(C)C1 [Lincomycin HCl] | 1.03 | 1.17 |
| N#Cc1c(Oc2ccc(F)c(NC(=O)Cc3cccc(C(F)(F)F)c3)c2)ccc2nc(NC(=O)C3CC3)sc12 | 0.396 | 0.335 |
| CO[C@H]1C[C@@H]2CC[C@@H](C)[C@@](O)(O2)C(=O)C(=O)N2CCCC[C@H]2C(=O)O[C@H]([C@H](C)C[C@@H]2CC[C@@H](OC(=O)C(C)(CO)CO)[C@H](OC)C2)CC(=O)[C@H](C)/C=C(\C)[C@@H](O)[C@@H](OC)C(=O)[C@H](C)C[C@H](C)/C=C/C=C/C=C/1C | 0.826 | 0.664 |
| O=c1cc[nH]c(=O)[nH]1 [Uracil] | 0.887 | 0.853 |
| Cc1ccc(C(=O)Nc2cccc(C(F)(F)F)c2)cc1Nc1nc(-c2cccnc2)nc2c1cnn2C | 1.07 | 0.407 |
| CCOC(=O)N1c2ccc(C(F)(F)F)cc2[C@@H](N(Cc2cc(C(F)(F)F)cc(C(F)(F)F)c2)C(=O)OC)C[C@H]1CC [Torcetrapib] | 1.01 | 0.857 |
| COc1ccc(-c2cc(=O)c3c(OC)c(OC)c(OC)c(OC)c3o2)cc1OC [Nobiletin] | 0.968 | 1.18 |
| C[C@H]1C[C@H]2[C@@H]3CCC4=CC(=O)C=C[C@]4(C)[C@H]3C(=O)C[C@]2(C)[C@@]1(O)C(=O)CO [Meprednisone] | 1.12 | 0.951 |
| Cc1ccc(S(=O)(=O)OCC(=O)Nc2ccc(C(=O)O)c(O)c2)cc1 | 1.19 | 1.02 |
| O=C(O)CCCN1CCC(O[C@@H](c2ccc(Cl)cc2)c2ccccn2)CC1 [Bepotastine Besilate] | 1.14 | 0.923 |
